Results taken from PMC5540273 (PLoS ONE, 2017).
What follows is the remainder of the data, with few or none of the strong results.

Each compound was assayed on CLK4. Settings: concentration: 1 μM,replicates: in singlicate; n = 1.
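Further: KINOMEscan kinase panel screen.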

| SMILES | %Inh [%] |
| --- | --- |
| O=C1NC(=O)C(c2ccc(Cl)cc2)=C1Nc1cccc(C(=O)O)c1 [SB-360737] | 17 |
| O=C1NC(=O)C(c2ccccc2Cl)=C1Nc1cccc(C(=O)O)c1 [SB-390526] | 22 |
| O=C1NC(=O)C(c2ccc(Cl)cc2)=C1Nc1ccc(O)c(Cl)c1 [SB-405367] | 45 |
| O=C1NC(=O)C(c2ccc(Cl)cc2)=C1Nc1cccc(O)c1 [SB-333613] | 54 |
| O=C1NC(=O)C(c2ccccc2)=C1Nc1cc(Cl)c(O)c(Cl)c1 [SB-390530] | 17 |
| Cc1ccc(C)c(Oc2nccc(-c3c(-c4ccc(F)cc4)ncn3C3CCNCC3)n2)c1.O=C(O)C(F)(F)F.O=C(O)C(F)(F)F.O=C(O)C(F)(F)F [SB-284852] | 0 |
| Cc1cc(C)cc(Oc2nccc(-c3c(-c4ccc(F)cc4)ncn3C3CCNCC3)n2)c1.O=C(O)C(F)(F)F.O=C(O)C(F)(F)F.O=C(O)C(F)(F)F [SB-284851] | 0 |
| O=C1NC(=O)C(c2ccccc2)=C1Nc1ccc(Cl)c(C(=O)O)c1 [SB-390532] | 0 |
| O=C1NC(=O)C(c2ccccc2Cl)=C1Nc1ccccc1 [SB-376715] | 12 |
| O=C(O)c1ccc(-c2nc(-c3ccc(F)cc3)c(-c3ccncc3)[nH]2)cc1 [SB-202620] | 13 |
| COc1cccc(C2=C(Nc3ccc(SC)cc3)C(=O)NC2=O)c1 [SB-331032] | 29 |
| COc1ccc(C2=C(Nc3cccc(Cl)c3)C(=O)NC2=O)cc1 [SB-326892] | 59 |
| CSc1ccc(NC2=C(c3cccc(Cl)c3)C(=O)NC2=O)cc1 [SB-341528] | 15 |
